The list shows a part of the results. Single values of this set are uncertain. Values with irradiation are relative to irradiated vehicle.

The subject of this assay is A549-Dual. As to the kind of experiment: ISRE reporter (Lucia luciferase) activity, viability-corrected, relative to vehicle (fold change vs vehicle); higher = more activation of STING-IRF / NF-kB immune response reporter. Conditions: 10 µM; irradiation: none.
The compound `CC(NC(=NC#N)Nc1ccncc1)C(C)(C)C.O` (configuration not stated) [Pinacidil] came in with an ISRE reporter of 0.505.

In the case of `CN(C)N(C)C(=O)C1(Cc2ccccc2)CCCN(C(=O)C(Cc2c[nH]c3ccccc23)NC(=O)C(C)(C)N)C1` (configuration not stated) [Anamorelin], the ISRE reporter worked out at 1.13.

`NNC(=O)c1ccncc1.Nc1ccc(C(=O)O)c(O)c1` [Pasiniazid] displayed an ISRE reporter of 7.19.

`Cc1nc(C(=O)NCC(=O)O)c(O)c2ccc(Oc3ccccc3)cc12` [Roxadustat (FG-4592)]: the ISRE reporter turned out to be 0.475.

For the compound `COc1ccccc1O` [Guaiacol], the ISRE reporter is 1.29.

The compound `O=C([O-])CCC(=O)OCC(NC(=O)C(Cl)Cl)C(O)c1ccc([N+](=O)[O-])cc1.[Na+]` (configuration not stated) [Chloramphenicol sodium succinate] showed an ISRE reporter of 0.894. With `CCCCC(CC)CN1CN(CC(CC)CCCC)CC(C)(N)C1` (configuration not stated) [Hexetidine], the ISRE reporter was 2.67. Turning to `CC(C)=CCC/C(C)=C/CC/C(C)=C/CC/C=C(\C)CC/C=C(\C)CCC=C(C)C` [Squalene], the ISRE reporter came out at 0.697.

`Cl.NCCC[C@H](N)C(=O)O` [L-Ornithine] had an ISRE reporter of 0.323. On to `CNCc1cc(-c2ccccc2F)n(S(=O)(=O)c2cccnc2)c1.O=C(O)/C=C/C(=O)O` [Vonoprazan Fumarate (TAK-438)], for which the ISRE reporter was 1.12. In the case of `Cc1cccc(C)c1OCC(=O)NC(Cc1ccccc1)C(O)CC(Cc1ccccc1)NC(=O)C(C(C)C)N1CCCNC1=O` (configuration not stated) [Lopinavir], the ISRE reporter is 0.869. `C=CC1C(OC2OC(CO)C(O)C(O)C2O)OC=C2C(=O)OCCC21O` (configuration not stated) [Swertiamarin] returned an ISRE reporter of 0.779.
